Test results from article PMC9911399, “Two distinct binding modes provide the RNA-binding protein RbFox with extraordinary sequence specificity”.
Changes are numbered by the printed parent chain; changes in the protein carry UniProt numbers. The list shows a part of the results.

T1: RBFOX1 RRM RbFoxmut (Fox-RRM*) (Homo sapiens, UniProt Q9NWB1 109-208, R118D;E147R;N151S;E152T)
T1 sequence: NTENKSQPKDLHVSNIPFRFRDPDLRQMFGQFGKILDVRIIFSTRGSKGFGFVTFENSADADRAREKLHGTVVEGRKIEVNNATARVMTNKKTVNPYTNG

B1: GGACCAC (DNA:RNA)
RNA: GGGAGACCGGAAUUCAGAUUGUCCGGACCACUUAAAUCCCGUCGUAGCCACCA
DNA 1: CAATCTGAATTCCGGTCTCCC
DNA 2: TGGTGGCTACGACGGGATT
B2: UACCCCG (DNA:RNA)
RNA: B1 RNA with G25U, G26A, A27C, A30C, C31G
DNA 1: CAATCTGAATTCCGGTCTCCC
DNA 2: TGGTGGCTACGACGGGATT
B3: UGGGACA (DNA:RNA)
RNA: B1 RNA with G25U, A27G, C28G, C29A, A30C, C31A
DNA 1: CAATCTGAATTCCGGTCTCCC
DNA 2: TGGTGGCTACGACGGGATT
B4: GGUGCGA (DNA:RNA)
RNA: B1 RNA with A27U, C28G, A30G, C31A
DNA 1: CAATCTGAATTCCGGTCTCCC
DNA 2: TGGTGGCTACGACGGGATT
B5: GGUCCCA (DNA:RNA)
RNA: B1 RNA with A27U, A30C, C31A
DNA 1: CAATCTGAATTCCGGTCTCCC
DNA 2: TGGTGGCTACGACGGGATT
B6: ACCUGAU (DNA:RNA)
RNA: B1 RNA with G25A, G26C, A27C, C28U, C29G, C31U
DNA 1: CAATCTGAATTCCGGTCTCCC
DNA 2: TGGTGGCTACGACGGGATT
B7: ACCCUAA (DNA:RNA)
RNA: B1 RNA with G25A, G26C, A27C, C29U, C31A
DNA 1: CAATCTGAATTCCGGTCTCCC
DNA 2: TGGTGGCTACGACGGGATT
B8: CCGAUGA (DNA:RNA)
RNA: GGGAGACCGGAAUUCAGAUUGUCCCCGAUGAUUAAAUCCCGUCGUAGCCACCA
DNA 1: CAATCTGAATTCCGGTCTCCC
DNA 2: TGGTGGCTACGACGGGATT
B9: GCACUUA (DNA:RNA)
RNA: B8 RNA with C25G, G27A, A28C, G30U
DNA 1: CAATCTGAATTCCGGTCTCCC
DNA 2: TGGTGGCTACGACGGGATT

These binders were tested against T1, RBFOX1 RRM RbFoxmut (Fox-RRM*) (assay: EMSA; HiTS-Eq, 1 nM pool, 10 min; buffer printed only for the single-RNA assays: 10 mM Tris pH 7.5, 150 mM NaCl, 3.4 mM EDTA, 0.001% NP-40, 30 C). Details: tags: His6 N-terminal (pET28a); label: 5' 32P.
Outline: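 Relative association constants, normalised to the cognate motif, were derived by comparing read counts of each RNA species with those of the control reaction. The RNA sequenced was the free fraction, separated by 8% native PAGE after a 10 min equilibration in 50 µL of 1 nM 5′-radiolabelled RNA (7 randomized nucleotides) with increasing concentrations of purified wild-type or mutant RbFox RRM.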

**Q.** B1 was tested. Which binding signal did it give?
**A.** 0.0575 KA relative to UGCAUGU

**Q.** For B2, which binding signal is on record?
**A.** 0.103 KA relative to UGCAUGU

**Q.** For B3, which binding signal is on record?
**A.** 0.0616 KA relative to UGCAUGU

**Q.** With B4 as the binder, how does the binding signal read?
**A.** 0.131 KA relative to UGCAUGU

**Q.** B5 was tested. Which binding signal did it give?
**A.** 0.0504 KA relative to UGCAUGU

**Q.** With B6 as the binder, how does the binding signal read?
**A.** 0.0597 KA relative to UGCAUGU

**Q.** With B7 as the binder, how does the binding signal read?
**A.** 0.0841 KA relative to UGCAUGU

**Q.** Which binding signal does the source give for B8 here?
**A.** 0.069 KA relative to UGCAUGU

**Q.** For B9, which binding signal is on record?
**A.** 0.101 KA relative to UGCAUGU
